*1 amine or outer side, *2 acyl side, *3 side chain or, on linkers, in order; H or OH if unused. Where a SMILES comes first, the peptide text is derived from it. [ ]: non-standard residue; d: D form. The star is where a group is joined. ξ: configuration not given here. Pro(trans-4-Ph) = O=C(O)[C@@H]1C[C@@H](c2ccccc2)CN1; Pro(4,4-S(CH2)3S) = O=C(O)[C@@H]1CC2(CN1)SCCCS2; Pro(4,4-SCH2CH2S) = O=C(O)[C@@H]1CC2(CN1)SCCS2; ξLeu(ψCOCO) = CC(C)CC(N[*:1])C(=O)C(=O)[*:2]; ξPro(4R-OtBu) = CC(C)(C)O[C@H]1CNC(C(=O)O)C1; Diphenylacetyl = O=C(C(c1ccccc1)c1ccccc1)*; Benzoyl(2-COOH) = O=C(O)c1ccccc1C(=O)*; Benzoyl(2,6-F2) = O=C(c1c(F)cccc1F)*; Isobutyloxycarbonyl = CC(C)COC(=O)*; X8 = O=C(C(=O)[*:2])C(CC1CC1)N[*:1]; Cyclohexylacetyl = O=C(CC1CCCCC1)*; Cyclopentylacetyl = O=C(CC1CCCC1)*; X15 = CC(=O)Nc1ccc(S(=O)(=O)*)cc1; X4 = CCCCC(N[*:1])C(=O)C(=O)[*:2]; X5 = CC(=O)O[C@H](C(=O)*)c1ccccc1; Hyp = O=C(O)[C@@H]1C[C@@H](O)CN1; X2 = CCCC(N[*:1])C(=O)C(=O)[*:2]; Aad = N[C@@H](CCCC(=O)O)C(=O)O; dPhg = N[C@@H](C(=O)O)c1ccccc1; Chg = N[C@H](C(=O)O)C1CCCCC1; Phg = N[C@H](C(=O)O)c1ccccc1; Tle = CC(C)(C)[C@H](N)C(=O)O; X101 = Cc1ccc(C(=O)*)c(C)c1; ξAad = NC(CCCC(=O)O)C(=O)O; ξChg = NC(C(=O)O)C1CCCCC1; ξPhg = NC(C(=O)O)c1ccccc1; Carboxymethyl = O=C(O)C*; Boc = CC(C)(C)OC(=O)*; ξNle = CCCCC(N)C(=O)O; ξV = CC(C)C(N)C(=O)O; Bn = c1ccc(C*)cc1; tBu = CC(C)(C)*
biological target: HCV NS3/NS4A protease (strain 1a) (Hepatitis C virus genotype 1a, UniProt P27958); assay: biochemical; conditions: Compounds prepared by Solid Phase Synthesis, Table 3; read-out: Ki* CLASS

Compound | Ki [nM]
CC(C)CC(NC(=O)[C@@H]1C[C@@H](OC(C)(C)C)CN1C(=O)[C@@H](NC(=O)c1ccccc1C(=O)O)C1CCCCC1)C(=O)C(=O)NCC(=O)N[C@H](C(N)=O)c1ccccc1 (stereo partly drawn) ({Benzoyl(2-COOH)}-[Chg][Hyp](tBu)[ξLeu(ψCOCO)]G[Phg]-NH2) | > 1000
CCCC(NC(=O)[C@@H]1C[C@@H](OCc2ccccc2)CN1C(=O)C(NC(=O)CC1CCCCC1)C1CCCCC1)C(=O)C(=O)NCC(=O)NC(C(N)=O)c1ccccc1 (stereo partly drawn) [drawing 335] (Cyclohexylacetyl-[ξChg][Hyp](Bn)[X2]G[ξPhg]-NH2) | 101 to 1000
CCCC(NC(=O)[C@@H]1C[C@@H](OCC(=O)O)CN1C(=O)C(NC(=O)OCC(C)C)C(C)C)C(=O)C(=O)NCC(=O)NC(CCCC(=O)O)C(N)=O (stereo partly drawn) (Isobutyloxycarbonyl-[ξV][Hyp](Carboxymethyl)[X2]G[ξAad]-NH2) | > 1000
CCCCC(NC(=O)CNC(=O)C(=O)C(CCC)NC(=O)[C@@H]1C[C@@H](OCc2ccccc2)CN1C(=O)C(NC(=O)C(c1ccccc1)c1ccccc1)C1CCCCC1)C(N)=O (stereo partly drawn) (Diphenylacetyl-[ξChg][Hyp](Bn)[X2]G[ξNle]-NH2) | 101 to 1000
CCCCC(NC(=O)C1C[C@@H](OC(C)(C)C)CN1C(=O)[C@@H](NC(=O)OC(C)(C)C)C1CCCCC1)C(=O)C(=O)NCC(=O)N[C@H](C(N)=O)C1CCCCC1 (stereo partly drawn) (Boc-[Chg][ξPro(4R-OtBu)][X4]G[Chg]-NH2) | > 1000
CCCC(NC(=O)[C@@H]1C[C@@H](OCc2ccccc2)CN1C(=O)[C@H](CCCC(=O)O)NC(=O)c1c(F)cccc1F)C(=O)C(=O)NCC(=O)N[C@H](C(N)=O)c1ccccc1 (stereo partly drawn) ({Benzoyl(2,6-F2)}-[Aad][Hyp](Bn)[X2]G[Phg]-NH2) | 101 to 1000
C[C@H](NC(=O)C(=O)C(CC1CC1)NC(=O)C1C[C@@H](OC(C)(C)C)CN1C(=O)[C@@H](NC(=O)OC(C)(C)C)C1CCCCC1)C(=O)N[C@H](C(N)=O)c1ccccc1 (stereo partly drawn) (Boc-[Chg][ξPro(4R-OtBu)][X8]A[Phg]-NH2) | 101 to 1000
CCCC(NC(=O)[C@@H]1C[C@@H](OCc2ccccc2)CN1C(=O)C(NC(=O)c1ccc(C)cc1C)C1CCCCC1)C(=O)C(=O)NCC(=O)N[C@@H](C(N)=O)c1ccccc1 (stereo partly drawn) (X101-[ξChg][Hyp](Bn)[X2]G[dPhg]-NH2) | 101 to 1000

same assay, conditions: HCV protease continuous assay results, Table 1; read-out: Ki* Range

Compound | Ki [nM]
CCCC(NC(=O)[C@@H]1CC2(CN1C(=O)C(NC(=O)OCC(C)C)C1CCCCC1)SCCS2)C(=O)C(=O)NCC(=O)NC(C(N)=O)c1ccccc1 (stereo partly drawn) [Example 76] (Isobutyloxycarbonyl-[ξChg][Pro(4,4-SCH2CH2S)][X2]G[ξPhg]-NH2) | 1 to 100
C=CCNC(=O)C(=O)[C@H](CCC)NC(=O)[C@@H]1CCCN1C(=O)[C@@H](NC(=O)CC[C@H](N)C(=O)O)C(C)C [Example 32] | > 1000
CC[C@@H](C)CC(NC(=O)[C@@H]1C[C@@H](OC(C)(C)C)CN1C(=O)C(NC(=O)OCC(C)C)C(C)(C)C)C(=O)C(=O)NCC(=O)N[C@@H](c1ccccc1)[C@H](C)O (stereo partly drawn) [Example 344] | > 1000
CCCC(NC(=O)[C@@H]1CC2(CN1C(=O)[C@@H](NC(=O)[C@@H](OC(C)=O)c1ccccc1)C(C)(C)C)SCCCS2)C(=O)C(=O)NCC(=O)NC(C(=O)N(C)C)c1ccccc1 (stereo partly drawn) [Example 208] (X5-[Tle][Pro(4,4-S(CH2)3S)][X2]G[ξPhg]-NMe2) | 1 to 100
CCCC(NC(=O)[C@@H]1CC2(CN1C(=O)[C@@H](NS(=O)(=O)c1ccc(NC(C)=O)cc1)C1CCCCC1)SCCCS2)C(=O)C(=O)NCC(=O)NC(C(N)=O)c1ccccc1 (stereo partly drawn) [Example 124] (X15-[Chg][Pro(4,4-S(CH2)3S)][X2]G[ξPhg]-NH2) | 101 to 1000
CCCC(NC(=O)[C@@H]1CC2(CN1C(=O)[C@@H](NC(=O)CC1CCCC1)C1CCCCC1)SCCCS2)C(=O)C(=O)NCC(=O)NC(C(=O)N(C)C)c1ccccc1 (stereo partly drawn) [Example 136] (Cyclopentylacetyl-[Chg][Pro(4,4-S(CH2)3S)][X2]G[ξPhg]-NMe2) | 1 to 100
CCCCC(NC(=O)[C@@H]1C[C@@H](OC(C)(C)C)CN1C(=O)[C@@H](NC(=O)OCC(C)C)C(C)(C)C)C(=O)C(=O)NCC(=O)N[C@H](C(C)=O)c1ccccc1 (stereo partly drawn) [Example 298] | > 1000
CCCC(NC(=O)[C@@H]1C[C@@H](c2ccccc2)CN1C(=O)[C@@H](NC(=O)OCC(C)C)C1CCCCC1)C(=O)C(=O)NCC(=O)N[C@H](C(=O)O)c1ccccc1 (stereo partly drawn) [Example 83] (Isobutyloxycarbonyl-[Chg][Pro(trans-4-Ph)][X2]G[Phg]-OH) | 101 to 1000
CCCC(NC(=O)[C@@H]1CC(OCCOc2ccccc2)CN1C(=O)C(NC(=O)OCC(C)C)C1CCCCC1)C(=O)C(=O)NCC(=O)NC(C(=O)N(C)C)c1ccccc1 (stereo partly drawn) [Example 258] | 1 to 100

same assay, conditions: Table 5; HCV NS3/NS4A protease, 30° C., pH 6.5; read-out: Ki* Range

Ki [nM] | Compound
1 to 100 | C=CCNC(=O)C(=O)C(CCC)NC(=O)[C@@H]1[C@H]2[C@@H](CN1C(=O)C(NC(=O)OC(C)(C)C)C1CCCCC1)C2(Cl)Cl (stereo partly drawn)
> 1000 | C=CCCNC(=O)C(=O)C(CCC=C)NC(=O)[C@H](CCC(C)C)NC(=O)[C@@H](NC(=O)OC(C)(C)C)C1CCCCC1 (stereo partly drawn)
101 to 1000 | C=CCCC(NC(=O)[C@@H]1[C@H]2[C@@H](CN1C(=O)[C@@H](NC(=O)NC1CCCC1)C1Cc3ccccc3C1)C2(C)C)C(=O)C(=O)NCC=C (stereo partly drawn)
101 to 1000 | C=CCCNC(=O)C(=O)C(CCC=C)NC(=O)[C@@H]1[C@@H]2[C@H](CN1C(=O)[C@@H](NS(=O)(=O)CC13CCC(CC1=O)C3(C)C)C(C)(C)C)C2(C)C (stereo partly drawn)
> 1000 | C=CCNC(=O)C(=O)C(CCC)NC(=O)[C@@H]1C2CC(C)(C)CC2CN1C(=O)[C@@H](NC(=O)OC(C)(C)C)C1CCCCC1 (stereo partly drawn)
1 to 100 | C=CCCC(NC(=O)[C@@H]1[C@@H]2[C@H](CN1C(=O)[C@@H](NC(=O)NC(C)(C)C)C(C)(C)C)C2(C)C)C(=O)C(=O)NCCC(=O)OC1(C)CCCC1 (stereo partly drawn)
101 to 1000 | C=CCCC(NC(=O)[C@@H]1[C@@H]2[C@H](CN1C(=O)[C@@H](NC(=O)OC(C)(C)C)C1CCCCC1)C2(C)C)C(=O)C(=O)NCCC1=CCCCC1 (stereo partly drawn) [drawing 2042]

— patent US7592316B2, “Peptides as NS3-serine protease inhibitors of hepatitis C virus” (Schering Corporation, priority 2000, dated 2009)
